Experiment [1] relates to HSkMC (human skeletal muscle cells). The experiment is described as follows: cytotoxicity call (relative viability < 0.9). As to conditions: 10 µM.
The test system of experiment [2] is HepG2. The experiment can be described thus: cytotoxicity call (relative viability < 0.9). Conditions: 10 µM.
Experiment [3] has as its system S. aureus RN4220. The experiment can be described thus: growth inhibition call (relative growth <= 0.2). As to conditions: 50 µM.

Structures are written as SMILES. The list shows a part of the results.

Turning to `O=C1NCCc2c(O)cccc21`, the cytotoxicity call in experiment [1] and in experiment [2] was “inactive” each time. Besides, in experiment [3], the growth inhibition call was “inactive”.
For the compound `C[C@@H]1CN([C@@H](C)CO)C(=O)c2cc(NC(=O)Cn3cnnn3)ccc2O[C@H]1CN(C)S(=O)(=O)c1ccc(F)cc1`, the cytotoxicity call in experiment [1] and in experiment [2] was “inactive” throughout. Moreover, the growth inhibition call in experiment [3] is “inactive”.
With `C[C@H]1CN([C@@H](C)CO)S(=O)(=O)c2ccc(Br)cc2O[C@@H]1CN(C)C(=O)c1cccnc1`, the cytotoxicity call in experiment [1] and in experiment [2] was “inactive” throughout. The growth inhibition call in experiment [3] was “inactive”.
Consider `COc1ccccc1-c1ccc2c(c1)O[C@@H](CN(C)C(=O)c1ccncc1)[C@H](C)CN([C@H](C)CO)S2(=O)=O`, for which the cytotoxicity call in experiment [1] and in experiment [2] was “inactive” in each case. Further, the growth inhibition call in experiment [3] was “inactive”.
For the compound `COCC(=O)N1C[C@@H](C)[C@H](OC)CN(C)C(=O)c2cc(NC(=O)c3cc(C)on3)ccc2OC[C@@H]1C`, the cytotoxicity call in experiment [1] and in experiment [2] was “inactive” throughout. For the same compound, in experiment [3], the growth inhibition call is “inactive”.
`O=C(N/N=C/[C@H](O)[C@@H](O)[C@H](O)[C@H](O)CO)c1ccccc1O`: the cytotoxicity call in experiment [1] and in experiment [2] was “inactive” throughout. Moreover, the growth inhibition call in experiment [3] was “inactive”.
As for `CC(C)NC(=O)N[C@@H]1CC[C@@H](CCN)O[C@@H]1CO`, the cytotoxicity call in experiment [1] and in experiment [2] was “inactive” in each case. Further, in experiment [3], the growth inhibition call was “inactive”.
In the case of `COc1ccc(cc1)CN1C[C@]2(CN(C2)C(=O)C2CCOCC2)c2c(n(c3cc(ccc23)OC)C)[C@@H]1CO`, the cytotoxicity call in experiment [1] and in experiment [2] was “inactive” throughout. The growth inhibition call in experiment [3] is “inactive”.
Turning to `COc1cccc(C(=O)Nc2ccc3c(c2)C(=O)N(C)[C@@H]2CC[C@H](CC(=O)NCC(F)(F)F)O[C@@H]2CO3)c1`, the cytotoxicity call in experiment [1] is “inactive”. Besides, the cytotoxicity call in experiment [2] was “active”. In addition, in experiment [3], the growth inhibition call was “inactive”.
In the case of `C[C@H]1CN([C@@H](C)CO)C(=O)c2cc(NC(=O)CCCN(C)C)ccc2O[C@H]1CN(C)Cc1ccc(Oc2ccccc2)cc1`, the cytotoxicity call in experiment [1] was “inactive”. In addition, the cytotoxicity call in experiment [2] was “active”. Also, the growth inhibition call in experiment [3] was “inactive”.
On to `C[C@@H]1CCCCO[C@H](CN(C)S(=O)(=O)c2ccc(Cl)cc2)[C@H](C)CN([C@H](C)CO)C(=O)c2cc(NS(=O)(=O)c3ccc(F)cc3)ccc2O1`, for which the cytotoxicity call in experiment [1] and in experiment [2] was “inactive” throughout. For the same compound, the growth inhibition call in experiment [3] is “inactive”.

These data come from the antibiotic and cytotoxicity screens of Wong et al. (2023).
